The list shows a part of the results. The list includes weakly bound sequences.
These sequences were tested against T1, MBP-FoxP3dN (UniProt Q99JB6) (assay: PD-seq (MBP pull-down with sequencing)). Conditions: 20 mM Tris-HCl pH 7.5, 100 mM NaCl, 1.5 mM MgCl2, 0.4 uM protein, 0.1 uM dsDNA library, 30 min, room temperature, amylose pull-down; high values mean tight binding; double strand, one strand shown.
T1 sequence: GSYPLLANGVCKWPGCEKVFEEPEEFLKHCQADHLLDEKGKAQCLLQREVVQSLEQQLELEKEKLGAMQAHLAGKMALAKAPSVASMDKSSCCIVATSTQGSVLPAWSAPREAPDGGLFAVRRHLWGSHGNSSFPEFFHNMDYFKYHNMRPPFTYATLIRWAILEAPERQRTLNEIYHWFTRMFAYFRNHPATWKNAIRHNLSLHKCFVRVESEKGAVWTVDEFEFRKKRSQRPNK

Row | Sequence | binding signal (RPM ratio (pull-down/input))
1 | GATGATTGTTCTCCCAGCTGATGAATTTCGAACCTCGAGTAAACAAATTTTCCTAATCTTTCTGTTCAAGCGCCATCTAC | 0.301
2 | GATGATTGTTCTCCCAGCTGATGAATTATGCACATCGAGTAAACAAATTTTCCTAATCTTTCTGTTCAAGCGCCATCTAC | 2.07
3 | GATGATTGTTCTCCCAGCTGATGAATTAGGCAAGTCGAGTAAACAAATTTTCCTAATCTTTCTGTTCAAGCGCCATCTAC | 1.19
4 | GATGATTGTTCTCCCAGCTGATGAATTTCACGGTTCGAGTAAACAAATTTTCCTAATCTTTCTGTTCAAGCGCCATCTAC | 0.309
5 | GATGATTGTTCTCCCAGCTGATGAATTGATATATTCGAGTAAACAAATTTTCCTAATCTTTCTGTTCAAGCGCCATCTAC | 0.951
6 | GATGATTGTTCTCCCAGCTGATGAATTTAGCCATTCGAGTAAACAAATTTTCCTAATCTTTCTGTTCAAGCGCCATCTAC | 4.73
7 | GATGATTGTTCTCCCAGCTGATGAATTGCAGGGGTCGAGTAAACAAATTTTCCTAATCTTTCTGTTCAAGCGCCATCTAC | 0.772
8 | GATGATTGTTCTCCCAGCTGATGAATTCGGTGCATCGAGTAAACAAATTTTCCTAATCTTTCTGTTCAAGCGCCATCTAC | 1.39
9 | GATGATTGTTCTCCCAGCTGATGAATTCTAGTAATCGAGTAAACAAATTTTCCTAATCTTTCTGTTCAAGCGCCATCTAC | 0.547
10 | GATGATTGTTCTCCCAGCTGATGAATTGGGGCGCTCGAGTAAACAAATTTTCCTAATCTTTCTGTTCAAGCGCCATCTAC | 0.419
11 | GATGATTGTTCTCCCAGCTGATGAATTATTCGAGTCGAGTAAACAAATTTTCCTAATCTTTCTGTTCAAGCGCCATCTAC | 0.319
12 | GATGATTGTTCTCCCAGCTGATGAATTAACGCGGTCGAGTAAACAAATTTTCCTAATCTTTCTGTTCAAGCGCCATCTAC | 0.438
13 | GATGATTGTTCTCCCAGCTGATGAATTATGACATTCGAGTAAACAAATTTTCCTAATCTTTCTGTTCAAGCGCCATCTAC | 2.11
14 | GATGATTGTTCTCCCAGCTGATGAATTTAAGGTATCGAGTAAACAAATTTTCCTAATCTTTCTGTTCAAGCGCCATCTAC | 0.6
15 | GATGATTGTTCTCCCAGCTGATGAATTGTCTATTTCGAGTAAACAAATTTTCCTAATCTTTCTGTTCAAGCGCCATCTAC | 1.18
16 | GATGATTGTTCTCCCAGCTGATGAATTACTGGGGTCGAGTAAACAAATTTTCCTAATCTTTCTGTTCAAGCGCCATCTAC | 0.231
17 | GATGATTGTTCTCCCAGCTGATGAATTATCGGGCTCGAGTAAACAAATTTTCCTAATCTTTCTGTTCAAGCGCCATCTAC | 0.244
18 | GATGATTGTTCTCCCAGCTGATGAATTATAGCGCTCGAGTAAACAAATTTTCCTAATCTTTCTGTTCAAGCGCCATCTAC | 0.581
19 | GATGATTGTTCTCCCAGCTGATGAATTCAACATGTCGAGTAAACAAATTTTCCTAATCTTTCTGTTCAAGCGCCATCTAC | 0.528
20 | GATGATTGTTCTCCCAGCTGATGAATTCATCTAATCGAGTAAACAAATTTTCCTAATCTTTCTGTTCAAGCGCCATCTAC | 0.294

Row | Sequence | binding signal (RPM ratio (pull-down/input))
21 | GATGATTGTTCTCCCAGCTGATGAATTATCGATATCGAGTAAACAAATTTTCCTAATCTTTCTGTTCAAGCGCCATCTAC | 0.494
22 | GATGATTGTTCTCCCAGCTGATGAATTGGTTAGATCGAGTAAACAAATTTTCCTAATCTTTCTGTTCAAGCGCCATCTAC | 0.342
23 | GATGATTGTTCTCCCAGCTGATGAATTGTATTTCTCGAGTAAACAAATTTTCCTAATCTTTCTGTTCAAGCGCCATCTAC | 2.06
24 | GATGATTGTTCTCCCAGCTGATGAATTATGTAATTCGAGTAAACAAATTTTCCTAATCTTTCTGTTCAAGCGCCATCTAC | 3.03
25 | GATGATTGTTCTCCCAGCTGATGAATTTCGATCATCGAGTAAACAAATTTTCCTAATCTTTCTGTTCAAGCGCCATCTAC | 0.513
26 | GATGATTGTTCTCCCAGCTGATGAATTAATCGACTCGAGTAAACAAATTTTCCTAATCTTTCTGTTCAAGCGCCATCTAC | 0.362
27 | GATGATTGTTCTCCCAGCTGATGAATTGGGAACTTCGAGTAAACAAATTTTCCTAATCTTTCTGTTCAAGCGCCATCTAC | 0.252
28 | GATGATTGTTCTCCCAGCTGATGAATTCTGCGCGTCGAGTAAACAAATTTTCCTAATCTTTCTGTTCAAGCGCCATCTAC | 2.64
29 | GATGATTGTTCTCCCAGCTGATGAATTCTGGAGCTCGAGTAAACAAATTTTCCTAATCTTTCTGTTCAAGCGCCATCTAC | 0.188
30 | GATGATTGTTCTCCCAGCTGATGAATTGTACCGGTCGAGTAAACAAATTTTCCTAATCTTTCTGTTCAAGCGCCATCTAC | 0.355
31 | GATGATTGTTCTCCCAGCTGATGAATTGACCGGGTCGAGTAAACAAATTTTCCTAATCTTTCTGTTCAAGCGCCATCTAC | 0.205
32 | GATGATTGTTCTCCCAGCTGATGAATTTGTGGAGTCGAGTAAACAAATTTTCCTAATCTTTCTGTTCAAGCGCCATCTAC | 1.79
33 | GATGATTGTTCTCCCAGCTGATGAATTTTAGGTATCGAGTAAACAAATTTTCCTAATCTTTCTGTTCAAGCGCCATCTAC | 0.581
34 | GATGATTGTTCTCCCAGCTGATGAATTCGCCCGATCGAGTAAACAAATTTTCCTAATCTTTCTGTTCAAGCGCCATCTAC | 0.252
35 | GATGATTGTTCTCCCAGCTGATGAATTAGATATCTCGAGTAAACAAATTTTCCTAATCTTTCTGTTCAAGCGCCATCTAC | 0.983
36 | GATGATTGTTCTCCCAGCTGATGAATTCGTTCATTCGAGTAAACAAATTTTCCTAATCTTTCTGTTCAAGCGCCATCTAC | 0.386
37 | GATGATTGTTCTCCCAGCTGATGAATTCACCAGATCGAGTAAACAAATTTTCCTAATCTTTCTGTTCAAGCGCCATCTAC | 0.179
38 | GATGATTGTTCTCCCAGCTGATGAATTAAAAACCTCGAGTAAACAAATTTTCCTAATCTTTCTGTTCAAGCGCCATCTAC | 0.269
39 | GATGATTGTTCTCCCAGCTGATGAATTGGAAGCTTCGAGTAAACAAATTTTCCTAATCTTTCTGTTCAAGCGCCATCTAC | 0.262
40 | GATGATTGTTCTCCCAGCTGATGAATTTCTTCCCTCGAGTAAACAAATTTTCCTAATCTTTCTGTTCAAGCGCCATCTAC | 0.217

Reference: publication PMC12820563
